Data reported in PubChem BioAssay AID686979 (National Center for Advancing Translational Sciences (NCATS), 2013).
Where “and” joins values, the source holds several entries; their conditions need not be identical. Equal values may be shown once. Out of some 420,000 compounds screened, about 50,000 (12%) were called active. The shares of active, inactive and inconclusive entries below differ from those in the screen. Calls follow the shape of the dose curve; as a rule, active = well fitted inhibition curve with a large enough effect; inconclusive = small, poorly fitted or top-dose-only effect; inactive = flat fitted curve, though single readings scatter. Where the call is inconclusive, the potency comes from a doubtful curve fit. The source holds several records for some structures; these can differ, active in one and inactive in another.

Test: qHTS for Inhibitors of human tyrosyl-DNA phosphodiesterase 1 (TDP1): qHTS in cells in presence of CPT; also: nearly all actives have a fitted effect of over 55% in size
Details: chicken DT40 Tdp1-/-;hTDP1 cells + 20 nM CPT, ATP luminescence, 48 h; activity change, negative = growth inhibition: at 46.2 µM (top of the series) unless noted
In short: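 Chicken DT40 Tdp1-/- cells stably complemented with human TDP1 were seeded at 400 cells/well in medium containing 20 nM camptothecin, exposed to pin-transferred compounds, and grown at 37 °C for at least 48 hr. Viability was read as ATP luminescence.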
% is scaled to controls: 0 for no effect and ±100 for the full control effect; potency is read from the fitted curve at half-maximal effect; tags tell the direction and shape of the fitted curve.

SMILES | Potency | activity change, negative = growth inhibition
O=P(O)(O)Cc1ccccc1OP(=O)(c1ccccc1)c1ccccc1 | inconclusive: 16.4 µM [inhibitor, partial curve] | 
COC(=O)C1=C(c2ccc3ccccc3c2)C[C@@H]2CC[C@H]1N2C(=O)NC1CC1 | active: 14.6 µM | 
CCCCCCCCCCCCOCCOCCOCCOCCOCCOCCOCCOCCOCCO | active: 6.68 µM | 
Cc1ccsc1C(=O)C1CCCN(Cc2cnc(N3CCOCC3)s2)C1 (stereo not given) | inactive | 
CCCCn1c(N)c(N(CC(C)C)C(=O)c2cc(Br)c(Br)s2)c(=O)[nH]c1=O | inconclusive: 25.9 µM [inhibitor, single point] | 
COc1ccccc1S(=O)(=O)N(C)C[C@@H]1Oc2cc(C#CCC(C)C)ccc2S(=O)(=O)N([C@H](C)CO)C[C@@H]1C | inconclusive: 29.1 µM [inhibitor, single point] | 
Clc1ccc(CCNCc2ccncc2)c(Cl)c1 | inconclusive: 29.1 µM [inhibitor, single point] | 
Cn1cccc1CNCCc1ccc(F)cc1 |  | inconclusive: -31.6% [inhibitor]
Cc1cc(C)cc(NC(=O)CSc2oc(-c3cccs3)nc2S(=O)(=O)c2ccc(Br)cc2)c1 | active: 5.8 µM | 
O=C(C1CCN(S(=O)(=O)c2ccc(Br)s2)CC1)N1CCN(c2ccc(F)cc2)CC1 | inconclusive: 29.1 µM [inhibitor, single point] | 
CC12CCC(=O)CC1CCC1C2C(=O)CC2(C)C1CCC2(C)O (stereo not given) | inactive | 
FC(F)(F)c1ccccc1CN1CCN(Cc2ccccc2)CC1 | inconclusive: 29.1 µM [inhibitor, single point] | 
COc1cccc(C(c2nnnn2C2CCCCC2)N2CCC3(CC2)C(=O)NCN3c2ccccc2)c1OC (stereo not given) | inconclusive: 29.1 µM [inhibitor, single point] | 
O=C(Nc1ccc2nc(SCC(=O)N3CCCc4ccccc43)sc2c1)c1ccccc1F | active: 5.8 µM | 
O=C(OCc1cc(=O)n2nc(C3CC3)sc2n1)c1ccc(NC(=O)c2ccccc2Cl)cc1 | inconclusive: 29.1 µM [inhibitor, single point] | 
Cc1[nH]c2c(Cl)cccc2c(=O)c1CN1CCCCCC1 | inconclusive: 25.9 µM [inhibitor, single point] | 
Cc1c(C(=O)NCc2ccc(Cl)c(Cl)c2)sc(=O)n1Cc1ccc(S(=O)(=O)N(C)C)cc1 | active: 8.2 µM | 
ClC1=C(Cl)C2(Cl)C3C(Cl)C=CC3C1(Cl)C2(Cl)Cl (stereo not given) | inactive and inconclusive: 29.1 µM [inhibitor, single point] | 
CCCCCn1c(=O)c(C(=O)Nc2ncccc2C)c(O)c2ccccc21 | inconclusive: 25.9 µM [inhibitor, single point] | 
Cc1cccc(NC(=O)CSc2ccc(-c3ccco3)nn2)c1 | inconclusive: 29.1 µM [inhibitor, single point] | 
CCOC(=O)c1cc(-c2ccccc2)n(CCCC(=O)Nc2ccc(C)c(C)c2)c1C | active: 16.4 µM | 
O=C(O)CCC(=O)OC[C@@H](NC(=O)C(Cl)Cl)C(O)c1ccc([N+](=O)[O-])cc1 (stereo not given in full) | inconclusive: 29.1 µM [inhibitor, single point] | 
CCc1c(C)nc(N)nc1N1N=C1SC(C(C)=O)C(C)=O | inactive | 

SMILES | Potency | activity change, negative = growth inhibition
Oc1ccc2c3c1O[C@H]1c4[nH]c5ccccc5c4C[C@@]4(O)C(C2)N(CC2CC2)CCC314 (stereo not given in full) | inconclusive: 29.1 µM [inhibitor, single point] | 
Cc1ccc2c(c1)C1CN(C)CCC1N2 (stereo not given) | inactive | 
O=c1[nH]c(=O)n(Cc2ccco2)c(O)c1C=NCCCn1ccnc1 | inactive | 
COc1cc2c(cc1OC)C(C(=O)NCCC(C)C)C1CCCCN1C2=O (stereo not given) | inactive | 
Cc1cc(OC(C)C(=O)NCC(O)c2ccccc2)c2c3c(c(=O)oc2c1)CCCC3 (stereo not given) | inconclusive: 23.1 µM [inhibitor, single point] | 
CC(C)(O)C(=O)Nc1ccc([N+](=O)[O-])c(C(F)(F)F)c1 | inconclusive: 20.6 µM [inhibitor, single point] | 
Nc1ccc(Cc2ccc(N)c(Cl)c2)cc1Cl | inactive | 
CN(C)c1ccc(C(O)P(=O)(OC2CCCCC2)OC2CCCCC2)cc1 (stereo not given) | inconclusive: 29.1 µM [inhibitor, single point] | 
CCOc1cc(CNC(C)C(O)c2ccccc2)cc(Cl)c1OCC (stereo not given) | inconclusive: 18.4 µM [inhibitor, single point] | 
C[C@@H]1OC(OC2C(OC3CC[C@@]4(C)C5CC=C6C7CC(C)(C)CC[C@@]7(C(=O)O)CCC6(C)C5(C)CCC4[C@]3(C)CO)OCC(O)C2O)C(O)C(O)C1O (stereo not given in full) | inconclusive: 23.1 µM [inhibitor, single point] | 
CS(=O)(=O)c1ccc(C2=C(CNC(=O)c3ccncc3)[C@H]3CC[C@@H](C2)N3CCOc2ccccc2)cc1 | inactive | 
N#Cc1ccc2nc(-c3ccc(CN4CCC(n5c(=O)[nH]c6ccccc65)CC4)cc3)c(-c3ccccc3)nc2c1 | active: 5.8 µM | 
Cc1ccccc1-n1c(C)cc(/C=C2/C(=O)NC(=O)N(Cc3ccco3)C2=O)c1C | inactive | 
N#Cc1c(Cl)cccc1Cl | inactive | 
CCOc1ccc(N=C2SCCCN2C)cc1 | inactive | 
O=C1CN=C(c2cccc(Br)c2)c2cc(Br)ccc2N1 | inactive | 
CN1[C@H]2CC[C@@H]1C(C(=O)N1CCOCC1)=C(O)C2 | inactive | 
CC(C)[C@@]1(NC(=O)[C@@H]2C[C@@H]3c4cccc5[nH]cc(c45)C[C@H]3N(C)C2)O[C@@]2(O)[C@@H]3CCCN3C(=O)[C@H](Cc3ccccc3)N2C1=O | active: 26.6 µM | 
O=c1c2ccccc2nc(-c2ccc([N+](=O)[O-])cc2)n1-c1ccccc1 | inactive | 
CCCCCCn1c(=O)c(C(=O)Nc2c(C)n(C)n(-c3ccccc3)c2=O)c(O)c2ccccc21 | active: 5.17 µM | 
Cc1ccc(-n2c(O)c(/C=C3/C(c4ccccc4)=Nc4ccccc43)c(=O)[nH]c2=O)cc1 | active: 5.8 µM | 
CCc1cccc(NC(=O)CN2C(=O)CN=C(c3ccccc3F)c3cc(Cl)ccc32)c1 | inconclusive: 29.1 µM [inhibitor, single point] | 
